Experimental data taken from PubChem BioAssay AID624417 (National Center for Advancing Translational Sciences (NCATS), 2012).
About 6,400 (1.6%) of roughly 410,000 compounds were called active. This list was built around the results that the source calls inconclusive (neither active nor inactive); the mix of calls is not that of the screen. The call rests on the fitted dose curve; in most records, active means well fitted inhibition curve with a large enough effect; inconclusive means small, poorly fitted or top-dose-only effect; inactive means no such curve, though single readings can be large or run the other way. No potency is given beside an inconclusive call; the fits are too rough.

The compounds below were run against Glucagon-like peptide 1 receptor (Homo sapiens) (UniProt P43220) (assay: qHTS of GLP-1 Receptor Inverse Agonists (Inhibition Mode)). Settings: HEK293 GLP-1R CRE-luciferase, luminescence, 24 h, GLP-1R form is constitutively active; activity change, negative = inhibition: at 38.3 µM (top of the series) unless noted.
Sequence of UniProt P43220 (P43220 whole entry, looked up): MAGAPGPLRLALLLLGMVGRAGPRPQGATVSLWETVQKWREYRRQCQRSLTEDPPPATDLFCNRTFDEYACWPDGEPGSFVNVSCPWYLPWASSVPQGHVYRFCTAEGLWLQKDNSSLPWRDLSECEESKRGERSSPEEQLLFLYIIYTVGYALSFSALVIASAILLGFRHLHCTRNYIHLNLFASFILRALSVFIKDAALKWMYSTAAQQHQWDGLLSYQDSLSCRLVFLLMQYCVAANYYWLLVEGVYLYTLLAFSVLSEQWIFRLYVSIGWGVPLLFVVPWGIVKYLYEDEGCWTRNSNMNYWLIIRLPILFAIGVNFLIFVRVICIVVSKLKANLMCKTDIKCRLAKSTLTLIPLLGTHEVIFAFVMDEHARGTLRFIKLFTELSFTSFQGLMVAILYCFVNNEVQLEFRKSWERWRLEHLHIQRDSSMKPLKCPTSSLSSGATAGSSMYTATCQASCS
Procedure, shortened: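 Cells are plated, allowed 12 hours at 37 deg C, then treated with compounds for 24 hr before luciferase detection reagent is added and luminescence is read after 12 min at room temperature. The HEK293 line carries constitutively active GLP-1R with a cAMP-responsive reporter.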
Further: nearly all actives have a fitted effect of over 55% in size.
On the % scale 0 is the no-effect control and ±100 the full control effect; potency means the concentration at half of the fitted maximal effect; tags describe the fitted curve by direction and shape.

| Structure (SMILES) | Potency | activity change, negative = inhibition |
| --- | --- | --- |
| CC(C)c1ccc(NC(=O)C2CCCN(S(=O)(=O)c3cnc[nH]3)C2)cc1 (stereo not drawn) | inconclusive [inhibitor, partial curve, poor fit] |  |
| O=C(NCc1ccccc1CN1CCCC1)C1CCN(S(=O)(=O)c2ccc(F)c(F)c2)CC1 | inconclusive [inhibitor, partial curve, poor fit] |  |
| CCOc1ccc(N(CC(=O)NC2CCCC2)C(=O)c2ccc(C)s2)cc1 | inconclusive [inhibitor, single point] |  |
| CCOC(=O)c1snc(C(=O)NC2CCCCC2)c1N | inconclusive [inhibitor, single point] |  |
| O=C(C1=C(O)C(=O)N(CCN2CCOCC2)C1c1ccc(F)cc1)c1cccs1 (stereo not drawn) |  | inactive: 9.55% |
| COc1ccccc1NC(=O)CSc1nnnn1Cc1ccccc1 |  | inactive: -24.5% |
| O=C(Cc1csc(Nc2nc(=S)[nH]c3ccccc23)n1)NCc1ccccc1Cl |  | inactive: 9.15% |
| O=C1c2ccsc2SCCN1Cc1ccccc1Cl | inconclusive [inhibitor, single point] |  |
| CC1=C(C#N)C(=O)NC(=O)/C1=C\c1ccc(-c2cc(C)c(C)cc2[N+](=O)[O-])o1 |  | inactive: 12.4% |
| COc1ccc(CNC(=O)c2ccc(Cn3c(=O)c4cccn4c4cccnc43)cc2)c(OC)c1 |  | inactive: 4.21% |
| COc1ccc(COCC(CC(C)C)N2CCN(C(=O)c3cccc(C(F)(F)F)c3)CCC2=O)cc1 (stereo not drawn) | inconclusive [inhibitor, single point] |  |
| Cc1cc(N2C3CCC2CC(O)(c2ccc(F)cc2)C3)nc(-c2ccccc2)n1 (stereo not drawn) | inconclusive [inhibitor, single point] |  |
| CCOC(=O)C1CCCN(C(=O)c2ccc3c(c2)N(C)C(=O)/C(=C/c2ccccc2Cl)S3)C1 (stereo not drawn) | inconclusive [inhibitor, full curve, poor fit] |  |
| CCOC(=O)C1(Cc2cccc(OC)c2)CCN(C/C=C/c2ccc(OC)cc2)CC1 | inconclusive [inhibitor, partial curve, poor fit] |  |
| O=C(CSCc1ccc(F)cc1)NCc1ccc2c(c1)OCO2 | inconclusive [inhibitor, single point] |  |
| COc1ccc(Nc2ncc(C(=O)Nc3cccc(Cl)c3)c3ccccc23)cc1 | inconclusive [inhibitor, single point] |  |
| Cc1cccc(NC(=O)CNC(=O)CCNC(=O)c2ccc(C(C)(C)C)cc2)c1C | inconclusive [inhibitor, partial curve, poor fit] |  |
| Cc1c(C(=O)N2CCOCC2)c(S(=O)(=O)Nc2ccc(F)cc2)c(C)n1C |  | inactive: -21.5% |
| O=c1c2sccc2nc(SCc2ccc([N+](=O)[O-])cc2)n1Cc1ccccn1 | inconclusive [inhibitor, single point] |  |
| COc1ccc(Br)cc1CNC(=O)CCc1nc(-c2ccccc2F)no1 | inconclusive [inhibitor, single point] |  |
| Cc1ccccc1-c1cc(C(=O)NCc2ccc(OC(F)(F)F)cc2)nn1CC1CC(c2cccc([N+](=O)[O-])c2)=NO1 (stereo not drawn) | inconclusive [inhibitor, single point] |  |

| Structure (SMILES) | Potency | activity change, negative = inhibition |
| --- | --- | --- |
| CCc1ccc(OCCCCN(C)Cc2ccccc2)cc1 | inconclusive [inhibitor, partial curve, poor fit] |  |
| COc1ccccc1NC(=O)COc1ccccc1C(=O)Nc1ccccc1 | inconclusive [inhibitor, partial curve, poor fit] |  |
| COc1ccc(/C=N/N=C/c2ccc(OC)cc2)cc1 |  | inactive: 1.69% |
| CC(=O)c1cccc(S(=O)(=O)N2CCC(C(=O)O)CC2)c1 |  | inactive: 8.1% |
| COc1cc(CNCc2cccs2)ccc1OCc1ccccc1 | inconclusive [inhibitor, single point] |  |
| FC(F)(F)Oc1ccc(Nc2nc3ccccc3o2)cc1 | inconclusive [inhibitor, partial curve, poor fit] |  |
| S=C(NNC(=S)Nc1ccc(Cl)cc1)NNc1ccccc1 |  | inactive: -5.16% |
| Fc1cccc(Nc2nc(N3CCOCC3)nc(N3CCOCC3)n2)c1 | inconclusive [inhibitor, partial curve, poor fit] |  |
| CCC(=O)N1c2ccccc2CC1C(=O)NCCCN1CCN(c2ccc(OC)cc2)CC1 (stereo not drawn) | inconclusive [inhibitor, partial curve, poor fit] |  |
| CCN(CC)c1ccc(/C=c2\sc3nc4ccccc4n3c2=O)c(O)c1 | inconclusive [inhibitor, partial curve, poor fit] |  |
| COc1ccc(-c2ccc(C(=O)NC(C)C)c3occc23)c(C)c1 | inconclusive [inhibitor, single point] |  |
| COc1ccc(N2C(=O)/C(=C/c3ccc([N+](=O)[O-])cc3)N=C2C)c(OC)c1 |  | inactive: 1.87% [at 7.66 µM] |
| Cn1c(SCc2cccc(Br)c2)nc2ccccc2c1=O | inconclusive [inhibitor, single point] |  |
| Cc1c(Cl)cccc1NC(=O)C(=O)NCCc1csc2nc(-c3ccccc3F)nn12 | inconclusive [inhibitor, partial curve, poor fit] |  |
| O=S(=O)(Nc1ccc(O)c(Sc2nc3ccccc3s2)c1)c1cc(Cl)ccc1Cl | inconclusive [inhibitor, single point] |  |
| O=C(Cn1c(-c2cccs2)cc2cc(F)ccc21)NCCc1ccc(Cl)cc1 |  | inactive: -31.3% |
| CC1CCCCN1c1cc2c(cc1F)c(=O)c(S(=O)(=O)c1ccccc1)cn2Cc1ccccc1 (stereo not drawn) |  | inactive: 4.58% |
| Cc1ccc2[nH]c(=O)c(CN(Cc3cccnc3)Cc3nnnn3CCN3CCOCC3)cc2c1 |  | inactive: 39% |
| Clc1ccc(-c2nnnn2-c2ccc(Cl)c(Cl)c2)cc1Cl | inconclusive [inhibitor, partial curve, poor fit] |  |
| COc1ccc(-c2ccc(C(=O)NCC(C)C)c3occc23)c(C)c1 | inconclusive [inhibitor, single point] |  |
| COc1ccc(NC(=O)CN(C)C(=O)c2ccc3[nH]c4c(c3c2)CC(C)CC4)cc1 (stereo not drawn) | inconclusive [inhibitor, single point] |  |

| Structure (SMILES) | Potency | activity change, negative = inhibition |
| --- | --- | --- |
| CCN1CCN(CCCNC(=O)Cn2c(-c3cccs3)cc3cc(Cl)ccc32)CC1 | inconclusive [inhibitor, single point] |  |
| Cc1ccc(SCc2c(C(=O)N/N=C/c3cccnc3)nnn2-c2nonc2N)cc1 | inconclusive [inhibitor, partial curve, poor fit] |  |
| CSc1cccc(NC(=O)C2CCCN2S(=O)(=O)c2ccc(Br)s2)c1 (stereo not drawn) | inconclusive [inhibitor, single point] |  |
| CCC1Oc2ccc(C)cc2N(CC(=O)N(Cc2ccc(C)o2)C2CC(C)(C)NC(C)(C)C2)C1=O (stereo not drawn) | inconclusive [inhibitor, partial curve, poor fit] |  |
| Cc1ccc2c(c1)C(c1ccccc1)N(C(=O)c1ccc(Br)cc1)CC(=O)N2 (stereo not drawn) | inconclusive [inhibitor, partial curve, poor fit] |  |
| CC(C)Sc1nc(N2CCCC2)c2c(c1C#N)CC(C)(C)OC2 | inconclusive [inhibitor, single point] |  |
| CC1CC(C)CN(C(=S)NC2CCCCC2)C1 (stereo not drawn) | inconclusive [inhibitor, partial curve, poor fit] |  |
| CCc1ccc(-c2cc(C)no2)cc1S(=O)(=O)NC(C)Cc1ccco1 (stereo not drawn) | active: 3.55 µM |  |
| Cc1ccc(C(C)C)c(OCC(=O)NN=C2CCCC(=O)C2)c1 | inconclusive [inhibitor, partial curve, poor fit] |  |
| O=C(COC(=O)c1c2c(nc3ccccc13)CCCCC2)c1ccc(Cl)s1 | inconclusive [inhibitor, single point] |  |
| Cc1cc(C(=O)OCC(=O)N2c3ccccc3CC2C)c(C)o1 (stereo not drawn) | inconclusive [inhibitor, single point] |  |
| CCc1cc(C(=O)c2ccc(OC)cc2)c(NC(=O)CN2CCCC2)s1 | inconclusive [inhibitor, partial curve, poor fit] |  |
| CN(C)c1ccc(C(=S)Nc2ccccc2)cc1 | inconclusive [inhibitor, single point] |  |
| Cc1cc(C)c(CSc2ncc(-c3ccc([N+](=O)[O-])cc3)[nH]2)c(C)c1 | active: 8.91 µM |  |
| O=C(Nc1nnc(-c2ccccn2)o1)c1cccc(Cl)c1 |  | inactive: 0.629% |
| COc1cccc(-c2nc(CS(=O)(=O)CC(=O)N3CCN(c4ccccc4)CC3)c(C)o2)c1 | inconclusive [inhibitor, single point] |  |
| CC1CC(C)CN(S(=O)(=O)c2ccc(NC(=O)CN3C(=O)NC(C)(c4ccccc4)C3=O)cc2)C1 (stereo not drawn) | inconclusive [inhibitor, partial curve, poor fit] |  |
| Cc1cc(C)c2cc(C(=O)N3CCC(N4CCCCC4)CC3)[nH]c2c1 | inconclusive [inhibitor, single point] |  |
| CN(C)C(CNC(=O)c1ccc(Cl)c(S(=O)(=O)N2CCCCCC2)c1)c1ccccc1 (stereo not drawn) | active: 7.94 µM |  |
| Cc1cccc(N2CCN(C(=O)c3ccc(Cl)c(S(=O)(=O)NCc4ccco4)c3)CC2)c1C | inconclusive [inhibitor, partial curve, poor fit] |  |
| CC(C)(C)C(=O)NNc1nc(-c2ccccc2)c2cc(Br)ccc2n1 | inconclusive [inhibitor, single point] |  |
